Consider 26 compounds from US20250214977A1, “STAT6 INHIBITORS AND USES THEREOF” (Kymera Therapeutics, Inc., priority 2024, published 2025).

SMILES strings stand for the structures. Some results are limits rather than exact numbers.

The assay deals with T1, biotinylated truncated STAT6 (123-632)-avi (Homo sapiens, UniProt P42226).
T1 sequence (P42226 123-632 limits assumed): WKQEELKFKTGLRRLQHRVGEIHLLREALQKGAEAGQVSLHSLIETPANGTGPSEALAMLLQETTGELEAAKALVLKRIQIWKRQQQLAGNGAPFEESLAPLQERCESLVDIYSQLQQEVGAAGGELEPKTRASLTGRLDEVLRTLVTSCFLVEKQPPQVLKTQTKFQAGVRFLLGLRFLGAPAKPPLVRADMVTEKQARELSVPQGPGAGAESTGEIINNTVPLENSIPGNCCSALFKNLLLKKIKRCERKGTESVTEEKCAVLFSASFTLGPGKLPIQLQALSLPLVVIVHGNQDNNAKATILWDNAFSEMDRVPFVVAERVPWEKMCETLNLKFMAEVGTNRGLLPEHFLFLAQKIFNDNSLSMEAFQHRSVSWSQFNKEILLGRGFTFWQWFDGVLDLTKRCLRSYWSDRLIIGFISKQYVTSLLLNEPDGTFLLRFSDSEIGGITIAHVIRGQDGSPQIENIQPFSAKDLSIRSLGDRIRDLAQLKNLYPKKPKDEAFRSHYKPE
Description: Homogenous Time-Resolved Fluorescence (HTRF) binding assay. As to conditions: 0.15 nM biotinylated truncated STAT6 (123-632)-avi, 20 nM fluorescein-labeled probe, 30 minutes at room temperature. Background: In TR-FRET formats the signal depends on donor and acceptor labels being close together.

A word on the IC50: it is the concentration at which inhibition is half-maximal. Lower therefore signals greater potency.

The compound `CN(C)C(=O)c1cc2ccc(C3=CCCN(C(=O)C(CC4CC4)N4Cc5ccccc5C4=O)C3)cc2[nH]1` (centres unmarked) [Example I-104] came in with an IC50 of 10 to 100 µM.
For `Cc1ccccc1OCc1ccccc1C(=O)N1CCC=C(c2ccc3cc(C(=O)N(C)C)[nH]c3c2)C1` [Example I-106], the IC50 was in the range of 1 to 10 µM.
In turn, `CN(C)C(=O)c1cc2ccc(C3=CCCN(C(=O)Cc4cccc(OCc5ccccc5)c4)C3)cc2[nH]1` [Example I-107] yielded an IC50 of 10 to 100 µM.
Compound `CN(C)C(=O)c1cc2ccc(C3=CCCN(C(=O)c4ccccc4C(=O)c4ccc(F)cc4)C3)cc2[nH]1` [Example I-108] registered an IC50 of 10 to 100 µM.
For the compound `CN(C)C(=O)c1cc2ccc(C3=CCCN(C(=O)C4CCN(c5ncccc5C(=O)O)CC4)C3)cc2[nH]1` [Example I-109], the IC50 was 10 to 100 µM.
For `CN(C)C(=O)c1cc2ccc(C3=CCCN(C(=O)c4cc(=O)c(OCc5ccccc5)c[nH]4)C3)cc2[nH]1` [Example I-110], the IC50 is 1 to 10 µM.
`CN(C)C(=O)c1cc2ccc(C3=CCCN(C(=O)CCC(=O)O)C3)cc2[nH]1` [Example I-112] yielded an IC50 of over 100 µM.
Under `CNc1ccc(-c2cc(C3=CCCN(C(=O)CCn4ccnn4)C3)cc3[nH]c(C(=O)N(C)C)cc23)cc1` [Example I-113] stands under 0.1 µM; under `CNc1ccc(-c2cc(C3=CCCN(C(=O)CCn4ccnn4)C3)cc3[nH]c(C(=O)N(C)C)cc23)c(F)c1` [Example I-115], 0.1 to 1 µM.
`CNc1ccc(-c2cc(C3=CCCN(C(=O)CCn4ccnn4)C3)cc3[nH]c(C(=O)N(C)C)cc23)nc1` [Example I-116]: the half-inhibitory concentration (IC50) is under 0.1 µM.
Compound `CNc1ccc(-c2cc(C3=CCCN(C(=O)CCn4ccnn4)C3)cc3[nH]c(C(=O)N(C)C)cc23)c(OC)c1` [Example I-117] came in with an IC50 of under 0.1 µM.
Compound `O=C(CCn1ccnn1)N1CCC=C(c2ccc3cc(-c4ccccn4)[nH]c3c2)C1` [Example I-119] returned an IC50 of 10 to 100 µM.
Under `CN(C)C(=O)c1cc2ccc(C3=CCCN(C(=O)OCn4ccnn4)C3)cc2[nH]1` [Example I-120] stands over 100 µM; under `CN(C)C(=O)c1cc2ccc(C3=CCCN(C(=O)[C@@H](Cn4ccnn4)c4cccc(O)c4)C3)cc2[nH]1` [Example I-122], 1 to 10 µM; under `O=C(CCn1ccnn1)N1CCC=C(c2ccc3cc(C(=O)N4CCCCC4)[nH]c3c2)C1` [Example I-123], 0.1 to 1 µM.
`O=C(CCn1ccnn1)N1CCC=C(c2ccc3cc(C(=O)N4CCCC4)[nH]c3c2)C1` [Example I-124] showed an IC50 of 1 to 10 µM.
Turning to `O=C(CCn1ccnn1)N1CCC=C(c2ccc3cc(C(=O)N4CCC4)[nH]c3c2)C1` [Example I-125], the IC50 is 1 to 10 µM.
Turning to `CC1CCCN(C(=O)c2cc3ccc(C4=CCCN(C(=O)CCn5ccnn5)C4)cc3[nH]2)C1` (centres unmarked) [Example I-126], the IC50 is 1 to 10 µM.
For `CC1CCCN(C(=O)c2cc3ccc(C4=CCCN(C(=O)CCn5ccnn5)C4)cc3[nH]2)C1` (centres unmarked) [Example I-127], the IC50 was 0.1 to 1 µM.
On to `O=C(CCn1ccnn1)N1CCC=C(c2ccc3oc(C(=O)N4CCCCC4)cc3c2)C1` [Example I-128], for which the IC50 fell in the range of 0.1 to 1 µM.
For `CN(C)C(=O)c1cc2ccc(C3=CCCN(C(=O)c4ccc5c(c4)OCC(=O)N5)C3)cc2[nH]1` [Example I-132], the IC50 fell in the range of 10 to 100 µM.
Regarding `Cc1cc(CC(=O)N2CCC=C(c3ccc4cc(C(=O)N(C)C)[nH]c4c3)C2)on1` [Example I-133], the IC50 is 1 to 10 µM.
`CN(C)C(=O)c1cc2ccc(C3=CCCN(C(=O)CCN4CCOC4=O)C3)cc2[nH]1` [Example I-134]: the IC50 lay within 10 to 100 µM.
As to `CN(C)C(=O)c1cc2ccc(C3=CCCN(C(=O)CC(C)(C)NCc4ccccc4)C3)cc2[nH]1` [Example I-135], the IC50 is 10 to 100 µM.
Under `COc1ccc(Cn2cc(CC(=O)N3CCC=C(c4ccc5cc(C(=O)N(C)C)[nH]c5c4)C3)cn2)cc1` [Example I-136] stands 10 to 100 µM; under `CN(C)C(=O)c1cc2ccc(C3=CCCN(C(=O)c4cccnc4-c4ccc(F)c(F)c4)C3)cc2[nH]1` [Example I-137], 10 to 100 µM.
